Measured values published in PubChem BioAssay AID504339 (National Center for Advancing Translational Sciences (NCATS), 2011).
Several values for one entry are separate records, joined by “and”; a condition that tells them apart may be missing. Identical values can stand only once. In all, about 390,000 compounds went through this assay and about 17,000 (4.4%) were called active. The inconclusive results got no clear call from the source; some entries with a clear call stand among them for comparison. The call rests on the fitted dose curve; in most records, active means well fitted inhibition curve with a large enough effect; inconclusive means small, poorly fitted or top-dose-only effect; inactive means no such curve, though single readings can be large or run the other way. A potency beside an inconclusive call is a rough fit, not a confirmed value.
Further: nearly all actives have a fitted effect of over 50% in size.
On the % scale 0 is the no-effect control and ±100 the full control effect; potency means the concentration at half of the fitted maximal effect; tags describe the fitted curve by direction and shape.

What follows are molecules tested against Lysine-specific demethylase 4A (Homo sapiens) (UniProt O75164) (assay: qHTS Assay for Inhibitors of JMJD2A-Tudor Domain). Settings: AlphaScreen JMJD2A-Tudor / H3K4me3 peptide binding; activity change, negative = inhibition: at 114 µM (top of the series).
Sequence of UniProt O75164 (O75164 whole entry, looked up, the tested form may be a part): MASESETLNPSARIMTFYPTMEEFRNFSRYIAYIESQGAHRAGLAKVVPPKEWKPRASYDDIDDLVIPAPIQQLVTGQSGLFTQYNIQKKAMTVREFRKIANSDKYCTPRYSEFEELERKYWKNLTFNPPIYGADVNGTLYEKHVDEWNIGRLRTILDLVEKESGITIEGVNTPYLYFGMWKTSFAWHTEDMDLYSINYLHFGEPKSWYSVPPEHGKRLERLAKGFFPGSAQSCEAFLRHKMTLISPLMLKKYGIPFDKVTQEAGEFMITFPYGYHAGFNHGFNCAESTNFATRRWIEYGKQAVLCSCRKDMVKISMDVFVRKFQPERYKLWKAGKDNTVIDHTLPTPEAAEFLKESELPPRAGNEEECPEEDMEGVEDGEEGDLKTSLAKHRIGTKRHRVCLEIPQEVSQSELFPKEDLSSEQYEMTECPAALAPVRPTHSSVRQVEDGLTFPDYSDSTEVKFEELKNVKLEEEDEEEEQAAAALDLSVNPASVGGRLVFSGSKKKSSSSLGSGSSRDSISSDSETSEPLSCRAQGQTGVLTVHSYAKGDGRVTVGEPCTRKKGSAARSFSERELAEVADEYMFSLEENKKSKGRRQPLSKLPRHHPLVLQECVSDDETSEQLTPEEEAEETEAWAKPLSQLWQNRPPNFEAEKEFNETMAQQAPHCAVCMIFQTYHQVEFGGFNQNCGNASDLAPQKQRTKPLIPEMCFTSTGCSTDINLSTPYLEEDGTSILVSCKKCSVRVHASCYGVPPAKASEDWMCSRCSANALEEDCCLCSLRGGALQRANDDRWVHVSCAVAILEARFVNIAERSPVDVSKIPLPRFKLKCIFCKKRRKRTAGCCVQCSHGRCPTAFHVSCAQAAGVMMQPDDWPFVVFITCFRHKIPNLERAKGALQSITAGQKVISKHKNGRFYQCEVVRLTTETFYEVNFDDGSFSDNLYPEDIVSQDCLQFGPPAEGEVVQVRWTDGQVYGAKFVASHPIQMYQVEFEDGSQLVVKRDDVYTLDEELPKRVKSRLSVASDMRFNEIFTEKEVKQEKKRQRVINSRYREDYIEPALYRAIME
In the case of `CCn1c(-c2nn(-c3ccccc3)ccc2=O)n[nH]c1=S`, the Potency is reported as inconclusive: 25.1 µM [inhibitor, single point]. `O=c1[nH]c(O)c(/C=C2\C=Nc3ccc(OCc4ccccc4)cc32)c(=O)[nH]1` was tested, and the Potency was inconclusive: 22.4 µM [inhibitor, full curve]. In the case of `CN1CCN(CCC(C#N)(c2ccccc2)c2ccccc2)CC1`, the Potency is reported as inconclusive: 89.1 µM [inhibitor, single point]. For `CCN(CC)C(=O)c1ccc(NC(=O)c2ccc(-c3nn(C)c(=O)c4ccccc34)cc2)cc1`, the Potency was inconclusive: 3.98 µM [inhibitor, single point]. With `Oc1ccc(/C=N/NP(=S)(c2ccccc2)c2ccccc2)cc1O` the Potency was inconclusive: 31.6 µM [inhibitor, partial curve]. In the case of `Cc1ccc(-c2nc(CN3C(=O)CN=C(c4ccccc4)c4ccccc43)c(C)o2)cc1`, the “activity change, negative = inhibition” value is reported as inactive: 3.31%. `COc1ccc(CNCCc2ccc3c(c2)OCO3)cc1Br` was tested, and the Potency was active: 17.8 µM. `CCN1/C(=C\C=C\C2=[N+](CC)c3ccccc3C2(C)C)C(C)(C)c2ccccc21` was tested, and the Potency was inconclusive: 25.1 µM [inhibitor, full curve]. In the case of `COc1ccc(OCC#CCN2CCNCC2)cc1`, the Potency is reported as active: 6.31 µM. For `CCC(C)(C)NC(=O)C(NS(=O)(=O)c1cccs1)c1ccccc1` (configuration not stated), the “activity change, negative = inhibition” value was inactive: -5.12%. In the case of `C[C@@H]1NCCc2cc(O)c(O)cc21`, the Potency is reported as active: 20 µM. With `Oc1c(Cl)cccc1Cc1cc(Cl)cc(Cl)c1O` the Potency was inconclusive: 12.6 µM [inhibitor, partial curve]. In the case of `CN(C)c1ccc(C=C2C=CC=C2)cc1`, the Potency is reported as active: 17.8 µM. `O=C(N/N=C/C1C(=O)NC(=S)N(c2ccccc2)C1=O)c1cc(Br)c(O)c(Br)c1` (configuration not stated) was tested, and the Potency was active: 10 µM. With `c1ccc(-c2ccc(-c3[nH]ncc3CN3CCC(N4CCSCC4)CC3)cc2)cc1` the Potency was inconclusive: 100 µM [inhibitor, partial curve]. For `O=c1[nH]c(=O)n(-c2ccc(Br)cc2)c(O)c1C=NCCN1CCCCC1`, the “activity change, negative = inhibition” value was inactive: -1.72%. With `C=Cn1c(P(=S)(N2CCOCC2)N2CCOCC2)cc2c1CCCC2` the Potency was inconclusive: 50.1 µM [inhibitor, partial curve]. For `COc1ccc(-c2ccc3n2Cc2cnnn2-c2ccccc2-3)cc1`, the Potency was inconclusive: 22.4 µM [inhibitor, full curve]. With `CCN1CCN(C(=O)Cc2ccccc2OC)CC1` the “activity change, negative = inhibition” value was inactive: -7.75%. With `CCC(C)n1c(O)c(C=NC(C)c2ccccc2)c(=O)[nH]c1=S` (configuration not stated) the Potency was inconclusive: 56.2 µM [inhibitor, partial curve]. For `O=C(N/N=C/c1c(O)n(CCC2=CCCCC2)c(=S)[nH]c1=O)c1ccccc1`, the Potency was inconclusive: 89.1 µM [inhibitor, single point]. In the case of `CCCc1nc2ccc(Br)cc2c(=O)n1-c1ccc([N+](=O)[O-])c(C(F)(F)F)c1`, the Potency is reported as inconclusive: 25.1 µM [inhibitor, partial curve]. With `C=CCN(CC(=O)c1sc(C(=O)OCC)nc1C)c1cccc(Br)c1` the Potency was inconclusive: 79.4 µM [inhibitor, partial curve]. With `CC1=C/C(=N\NC(=S)NCCc2ccccc2)CC(C)(C)C1` the Potency was active: 50.1 µM. `O=C(c1cn(Cc2ccccc2F)c2ncccc12)C(F)(F)F` was tested, and the “activity change, negative = inhibition” value was inactive: 58%. For `NC(=O)c1cn(C2OC(CO)C(O)C2O)c2ncnc(N)c12` (configuration not stated), the Potency was “inactive and inconclusive: 20 µM [inhibitor, partial curve]”. With `O=C1NC(=O)C(=Cc2cccc(OCCOc3ccccc3)c2)C(=O)N1` the Potency was inconclusive: 56.2 µM [inhibitor, partial curve]. For `COc1ccc2c3c1OC1C(O)C=CC4C(C2)[N+](C)(C)CCC341` (configuration not stated), the Potency was active: 15.8 µM. For `O=C1CN=C(c2ccc(Br)cc2)c2c(sc3c2CCCC3)N1CCN1CCCCC1`, the Potency was inconclusive: 44.7 µM [inhibitor, partial curve]. With `Cc1oc(-c2ccccc2)nc1CN1C(=O)CN=C(c2ccccc2)c2ccccc21` the Potency was inconclusive: 56.2 µM [inhibitor, partial curve, poor fit]. With `Cn1c(O)c(C=Nc2ccccc2)c(=O)n(C)c1=O` the “activity change, negative = inhibition” value was inactive: -7.46%. For `CCOP(=O)(OCC)C(NC(=O)c1ccccc1Cl)=C(Cl)Cl`, the Potency was inconclusive: 89.1 µM [inhibitor, single point]. For `COc1ccc(N2CCN(CCCN)CC2)cc1`, the Potency was active: 10 µM. For `CCC1(CCO)C(=O)NC(=S)NC1=O`, the “activity change, negative = inhibition” value was inactive: -6.21%. For `CCN(CC)CCNCC(=O)Nc1ccc(Cl)cc1C(=O)c1ccccc1`, the Potency was inconclusive: 1.26 µM [inhibitor, full curve, poor fit]. In the case of `O=[N+]([O-])c1ccccc1CN1CC=C(c2ccc(F)cc2)CC1`, the Potency is reported as inconclusive: 56.2 µM [inhibitor, partial curve]. With `COc1ccc2[nH]c3c(c2c1)CCN[C@H]3C` the Potency was inconclusive: 63.1 µM [inhibitor, partial curve, poor fit]. `O=C(Oc1ccc(Cl)cc1)N1CCOCC1` was tested, and the Potency was inconclusive: 14.1 µM [inhibitor, full curve, poor fit]. `O=[N+]([O-])NC1=NCN(Cc2ccco2)CN1Cc1ccco1` was tested, and the Potency was inconclusive: 0.631 µM [inhibitor, full curve, poor fit]. For `N#Cc1cc2c(nc1SCC(=O)Nc1cc(Cl)ccc1Cl)C1CCN2CC1`, the Potency was inconclusive: 10 µM [inhibitor, partial curve]. With `[N-]=[N+]=CC(=O)OC[C@H](N)C(=O)O` the Potency was active: 31.6 µM. For `CN1CN(c2ccccc2)C2(CCN(CCCSc3ccccc3NC(=O)/C=C/c3ccccc3)CC2)C1=O`, the Potency was active: 39.8 µM. In the case of `CCCCC(CC)CNCC(O)c1ccccc1` (configuration not stated), the Potency is reported as active: 7.08 µM. In the case of `O=C(O)CCn1cc(C=C2C(=O)NC(=S)NC2=O)c(-c2ccccc2)n1`, the Potency is reported as active: 12.6 µM. `FC(F)(F)c1ccc(CNCCc2c[nH]c3ccccc23)cc1` was tested, and the Potency was inconclusive: 50.1 µM [inhibitor, partial curve]. For `CN(C)C(=O)Oc1ccc2c(c1)O/C(=C\c1cccc(Cl)c1)C2=O`, the Potency was inconclusive: 50.1 µM [inhibitor, partial curve]. With `C[C@@H](N)Cc1cnc[nH]1` the Potency was inconclusive: 79.4 µM [inhibitor, partial curve]. With `O=C1NC(=O)N(c2ccccc2F)C(=O)/C1=C/c1ccc(Oc2ccc([N+](=O)[O-])cn2)cc1` the Potency was inconclusive: 50.1 µM [inhibitor, partial curve]. `O=c1[nH]c(=O)n(Cc2ccco2)c(O)c1C=NCc1cccs1` was tested, and the “activity change, negative = inhibition” value was inactive: -22.8%. `O=C(Cc1ccccc1)OCC(=O)N1CCN(S(=O)(=O)c2ccc(Cl)cc2)CC1` was tested, and the “activity change, negative = inhibition” value was inactive: -16%. In the case of `Fc1ccc(C2=CCN(C(c3cccs3)c3nnnn3CCc3ccccc3)CC2)cc1` (configuration not stated), the Potency is reported as inconclusive: 56.2 µM [inhibitor, partial curve]. In the case of `CCN(CC)c1ccc(/C=C/[N+](=O)[O-])cc1`, the Potency is reported as inconclusive: 79.4 µM [inhibitor, partial curve]. `COc1ccc(C(=O)CN2CCOCC2)cc1F` was tested, and the “activity change, negative = inhibition” value was inactive: -31%. In the case of `Cc1ccc(N2C(=O)NC(=O)/C(=C\c3cc(C)n(-c4cc(C(=O)O)cc(C(=O)O)c4)c3C)C2=O)cc1`, the Potency is reported as active: 31.6 µM. For `Cc1c(N=Nc2c(O)n(Cc3ccccc3)c(=O)[nH]c2=O)c(=O)n(-c2ccccc2)n1C`, the Potency was active: 20 µM. With `CC(C)C[C@H]1CN([C@@H](CC(C)C)CN2CCCC2CN2C(=S)NC[C@@H]2Cc2ccc(O)cc2)C(=S)N1CC1CCCCCC1` (some centres not stated) the Potency was inconclusive: 44.7 µM [inhibitor, partial curve]. In the case of `O=C1NC(=O)N(c2ccccc2F)C(=O)/C1=C/c1ccc(Sc2nc3ccccc3[nH]2)o1`, the Potency is reported as active: 22.4 µM. With `Cn1cccc1CN1CCN(C(=O)COc2ccccc2)CC1` the Potency was active: 7.08 µM. With `Cc1ccccc1-n1c(O)c(/C=N/Nc2nc3c(c(=O)n(C)c(=O)n3C)n2C)c(=O)[nH]c1=S` the Potency was inconclusive: 28.2 µM [inhibitor, single point]. `CCOC(=O)c1ccc(NC(c2ccc(N(C)C)cc2)P(=O)(OC(C)C)OC(C)C)cc1` (configuration not stated) was tested, and the Potency was active: 50.1 µM. For `CSc1ncc(/C=C2/C(=O)NC(=O)N(c3ccc(C(C)C)cc3)C2=O)cn1`, the Potency was inconclusive: 89.1 µM [inhibitor, single point]. For `CCn1cc2nc(SCc3cc(C)ccc3C)n(Cc3ccc(OC)cc3)c(=O)c2n1`, the Potency was inconclusive: 63.1 µM [inhibitor, partial curve]. In the case of `CC(=O)N1C[C@H](O)C[C@H]1C(=O)O`, the Potency is reported as inconclusive: 79.4 µM [inhibitor, partial curve]. For `CC1CN=C(Nc2ccccc2)S1` (configuration not stated), the “activity change, negative = inhibition” value was inactive: 0%. For `Cc1ccc(Sc2c(C)[nH]n(C(C)(C)C)c2=O)cc1`, the Potency was inconclusive: 25.1 µM [inhibitor, full curve, poor fit]. `O=C(N/N=C/c1c(O)n(CCc2ccc(F)cc2)c(=O)[nH]c1=O)c1ccccc1` was tested, and the Potency was inconclusive: 89.1 µM [inhibitor, partial curve]. With `COc1ccc(N=Nc2c(O)[nH]c(=S)[nH]c2=O)cc1` the “activity change, negative = inhibition” value was inactive: -22.4%. `C=CCn1c(O)c(/C=N/NC(=O)CCCC)c(=O)[nH]c1=S` was tested, and the Potency was active: 79.4 µM. With `COc1ccc(-c2n[nH]c(=S)n2-c2ccc3c(c2)OCCO3)cc1OC` the Potency was active: 3.16 µM. With `O=C(NCc1ccco1)C(c1ccco1)N(C(=O)Cn1nnc2ccccc21)c1ccc2c(c1)CCC2` (configuration not stated) the Potency was inconclusive: 50.1 µM [inhibitor, partial curve]. With `CN1C(=O)/C(=C\c2ccc(N3CCCCCC3)cc2)C(=O)NC1=S` the Potency was inconclusive: 56.2 µM [inhibitor, partial curve]. For `N[C@@]1(C(=O)O)CC[C@@H](C(=O)O)C1`, the Potency was active: 50.1 µM.
